# Measured values reported in the supplement of paper PMC8728848.
# The list shows a part of the results.
# B1: Si Bti9 1b-HA (Solanum lycopersicum) (protein)
# chain: MFESRPRSVLSLGVFVILVYLSSVPLPVNSQCNRGCDLALASFYVWRGSNLTLISEMFSTSIADIVSYNNRDNIPNQDSVIAGTRINIPFRCDCLNDGEVLGHAFPYRVKSGDTYDLVARNYSDLTTAQWMMKFNSYPENNIPNTVNLSVVVNCSCGNSDVSKDFGLFVTYPVRAEDNLTSVASAANVSEDIIRRYNPAAVSILDIGQGIIYIPGRDRNGNFPPLPTSTDGLSGGAKAPLFFNPAFLYKVVELKLAGRSRTSGYPYDVPDYAGYPYDVPDYALEVLFQ
# Legend:
# Test in all cases: glycan array binding signal (z-score within array); higher = stronger binding
# Conditions in all cases: glycan notation: IUPAC condensed, linker removed
# [1] = molecular target: Neu5Ac(a2-3)Gal(b1-3)GalNAc
# In short: (§1)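 Glycan array data came from 3228 arrays in the Consortium for Functional Glycomics database, and only arrays with an available protein sequence were kept. Glycan names were put into IUPAC-condensed notation, and columns mapping to the same glycan were averaged. The binding signal is a within-array Z-score, averaged across arrays of one protein sequence run at different concentrations or buffers and across linkers. A negative Z-score can be read as non-binding.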
# [2] = molecular target: Neu5Ac(a2-3)Gal(b1-3)GalNAc(b1-3)Gal(a1-4)Gal(b1-4)Glc
# In short: as §1
# [3] = molecular target: Neu5Ac(a2-3)Gal(b1-3)GalNAc(b1-4)[Neu5Ac(a2-3)]Gal(b1-4)Glc
# In short: as §1
# [4] = molecular target: Neu5Ac(a2-3)Gal(b1-3)GalNAc(b1-4)[Neu5Ac(a2-8)Neu5Ac(a2-3)]Gal(b1-4)Glc
# In short: as §1
# [5] = molecular target: Neu5Ac(a2-3)Gal(b1-3)GalNAc6S
# In short: as §1
# [6] = molecular target: Neu5Ac(a2-3)Gal(b1-3)GlcNAc
# In short: as §1
# [7] = molecular target: Neu5Ac(a2-3)Gal(b1-3)GlcNAc(b1-2)Man
# In short: as §1
# [8] = molecular target: Neu5Ac(a2-3)Gal(b1-3)GlcNAc(b1-2)Man(a1-3)[GlcNAc(b1-4)][Neu5Ac(a2-3)Gal(b1-3)GlcNAc(b1-2)Man(a1-6)]Man(b1-4)GlcNAc(b1-4)GlcNAc
# In short: as §1
# [9] = molecular target: Neu5Ac(a2-3)Gal(b1-3)GlcNAc(b1-2)Man(a1-3)[Neu5Ac(a2-3)Gal(b1-3)GlcNAc(b1-2)Man(a1-6)]Man(b1-4)GlcNAc(b1-4)GlcNAc
# In short: as §1
# [10] = molecular target: Neu5Ac(a2-3)Gal(b1-3)GlcNAc(b1-3)Gal(b1-3)GlcNAc
# In short: as §1
# [11] = molecular target: Neu5Ac(a2-3)Gal(b1-3)GlcNAc(b1-3)Gal(b1-4)GlcNAc
# In short: as §1
# [12] = molecular target: Neu5Ac(a2-3)Gal(b1-3)GlcNAc(b1-3)GalNAc
# In short: as §1
# [13] = molecular target: Neu5Ac(a2-3)Gal(b1-3)GlcNAc(b1-4)Gal(b1-4)Glc
# In short: as §1
# [14] = molecular target: Neu5Ac(a2-3)Gal(b1-3)GlcNAc(b1-6)GalNAc
# In short: as §1
# [15] = molecular target: Neu5Ac(a2-3)Gal(b1-3)GlcNAc6S
# In short: as §1
# [16] = molecular target: Neu5Ac(a2-3)Gal(b1-3)[Fuc(a1-4)]GlcNAc
# In short: as §1
# [17] = molecular target: Neu5Ac(a2-3)Gal(b1-3)[Fuc(a1-4)]GlcNAc(b1-3)Gal(b1-3)[Fuc(a1-4)]GlcNAc
# In short: as §1
# [18] = molecular target: Neu5Ac(a2-3)Gal(b1-3)[Fuc(a1-4)]GlcNAc(b1-3)Gal(b1-4)[Fuc(a1-3)]GlcNAc
# In short: as §1
# [19] = molecular target: Neu5Ac(a2-3)Gal(b1-3)[GlcNAc(b1-6)]GalNAc
# In short: as §1
# [20] = molecular target: Neu5Ac(a2-3)Gal(b1-3)[Neu5Ac(a2-6)]GalNAc
# In short: as §1
# [21] = molecular target: Neu5Ac(a2-3)Gal(b1-3)[Neu5Ac(a2-6)]GlcNAc(b1-3)[Fuc(a1-3)[Gal(b1-4)]GlcNAc(b1-6)]Gal(b1-4)Glc
# In short: as §1
# [22] = molecular target: Neu5Ac(a2-3)Gal(b1-3)]Neu5Ac(a2-3)Gal(b1-4)]GlcNAc
# In short: as §1
# Neu5Ac(a2-3)Gal(b1-4)Glc = molecular target: Neu5Ac(a2-3)Gal(b1-4)Glc
# In short: as §1
# [23] = molecular target: Neu5Ac(a2-3)Gal(b1-4)GlcNAc
# In short: as §1
# [24] = molecular target: Neu5Ac(a2-3)Gal(b1-4)GlcNAc(b1-2)Man
# In short: as §1
# [25] = molecular target: Neu5Ac(a2-3)Gal(b1-4)GlcNAc(b1-2)Man(a1-3)[GlcNAc(b1-4)][Neu5Ac(a2-3)Gal(b1-4)GlcNAc(b1-2)Man(a1-6)]Man(b1-4)GlcNAc(b1-4)GlcNAc
# In short: as §1
# [26] = molecular target: Neu5Ac(a2-3)Gal(b1-4)GlcNAc(b1-2)Man(a1-3)[Neu5Ac(a2-3)Gal(b1-4)GlcNAc(b1-2)Man(a1-6)]Man(b1-4)GlcNAc(b1-4)GlcNAc
# In short: as §1
# [27] = molecular target: Neu5Ac(a2-3)Gal(b1-4)GlcNAc(b1-2)Man(a1-3)[Neu5Ac(a2-3)Gal(b1-4)GlcNAc(b1-2)Man(a1-6)]Man(b1-4)GlcNAc(b1-4)[Fuc(a1-6)]GlcNAc
# In short: as §1
# [28] = molecular target: Neu5Ac(a2-3)Gal(b1-4)GlcNAc(b1-2)Man(a1-3)[Neu5Ac(a2-6)Gal(b1-4)GlcNAc(b1-2)Man(a1-6)]Man(b1-4)GlcNAc(b1-4)GlcNAc
# In short: as §1
# [29] = molecular target: Neu5Ac(a2-3)Gal(b1-4)GlcNAc(b1-2)[Neu5Ac(a2-3)Gal(b1-4)GlcNAc(b1-4)]Man(a1-3)[GlcNAc(b1-4)][Neu5Ac(a2-3)Gal(b1-4)GlcNAc(b1-2)[Neu5Ac(a2-3)Gal(b1-4)GlcNAc(b1-6)]Man(a1-6)]Man(b1-4)GlcNAc(b1-4)GlcNAc
# In short: as §1
# [30] = molecular target: Neu5Ac(a2-3)Gal(b1-4)GlcNAc(b1-2)[Neu5Ac(a2-3)Gal(b1-4)GlcNAc(b1-4)]Man(a1-3)[GlcNAc(b1-4)][Neu5Ac(a2-3)Gal(b1-4)GlcNAc(b1-4)Man(a1-6)]Man(b1-4)GlcNAc(b1-4)GlcNAc
# In short: as §1
# [31] = molecular target: Neu5Ac(a2-3)Gal(b1-4)GlcNAc(b1-2)[Neu5Ac(a2-3)Gal(b1-4)GlcNAc(b1-6)]Man(a1-6)[Neu5Ac(a2-3)Gal(b1-4)GlcNAc(b1-2)Man(a1-3)]Man(b1-4)GlcNAc(b1-4)GlcNAc
# In short: as §1
# [32] = molecular target: Neu5Ac(a2-3)Gal(b1-4)GlcNAc(b1-2)[Neu5Ac(a2-3)Gal(b1-4)GlcNAc(b1-6)]Man(a1-6)[Neu5Ac(a2-3)Gal(b1-4)GlcNAc(b1-2)Man(a1-3)][GlcNAc(b1-4)]Man(b1-4)GlcNAc(b1-4)GlcNAc
# In short: as §1
# [33] = molecular target: Neu5Ac(a2-3)Gal(b1-4)GlcNAc(b1-3)Gal
# In short: as §1
# [34] = molecular target: Neu5Ac(a2-3)Gal(b1-4)GlcNAc(b1-3)Gal(b1-3)GlcNAc
# In short: as §1
# [35] = molecular target: Neu5Ac(a2-3)Gal(b1-4)GlcNAc(b1-3)Gal(b1-4)GlcNAc
# In short: as §1
# [36] = molecular target: Neu5Ac(a2-3)Gal(b1-4)GlcNAc(b1-3)Gal(b1-4)GlcNAc(b1-2)Man(a1-3)[Neu5Ac(a2-3)Gal(b1-4)GlcNAc(b1-3)Gal(b1-4)GlcNAc(b1-2)Man(a1-6)]Man(b1-4)GlcNAc(b1-4)GlcNAc
# In short: as §1
binder,measurement,setting,value
B1,glycan array binding signal (z-score),[1],-0.304
same,glycan array binding signal (z-score),[2],-0.445
same,glycan array binding signal (z-score),[3],-0.283
same,glycan array binding signal (z-score),[4],-0.478
same,glycan array binding signal (z-score),[5],-0.075
same,glycan array binding signal (z-score),[6],-0.333
same,glycan array binding signal (z-score),[7],-0.142
same,glycan array binding signal (z-score),[8],0.057
same,glycan array binding signal (z-score),[9],0.345
same,glycan array binding signal (z-score),[10],-0.489
same,glycan array binding signal (z-score),[11],-0.297
same,glycan array binding signal (z-score),[12],-0.047
same,glycan array binding signal (z-score),[13],-0.098
same,glycan array binding signal (z-score),[14],-0.247
same,glycan array binding signal (z-score),[15],-0.055
same,glycan array binding signal (z-score),[16],-0.166
same,glycan array binding signal (z-score),[17],-0.407
same,glycan array binding signal (z-score),[18],0.083
same,glycan array binding signal (z-score),[19],-0.327
same,glycan array binding signal (z-score),[20],-0.125
same,glycan array binding signal (z-score),[21],-0.273
same,glycan array binding signal (z-score),[22],0.17
same,glycan array binding signal (z-score),Neu5Ac(a2-3)Gal(b1-4)Glc,0.009
same,glycan array binding signal (z-score),[23],-0.428
same,glycan array binding signal (z-score),[24],1.37
same,glycan array binding signal (z-score),[25],-0.682
same,glycan array binding signal (z-score),[26],-0.375
same,glycan array binding signal (z-score),[27],-0.088
same,glycan array binding signal (z-score),[28],-0.502
same,glycan array binding signal (z-score),[29],-0.615
same,glycan array binding signal (z-score),[30],-0.546
same,glycan array binding signal (z-score),[31],0.923
same,glycan array binding signal (z-score),[32],-0.676
same,glycan array binding signal (z-score),[33],-0.167
same,glycan array binding signal (z-score),[34],-0.364
same,glycan array binding signal (z-score),[35],-0.486
same,glycan array binding signal (z-score),[36],0.285
